In PubChem BioAssay:
Inconclusive means that the source gave no clear call. Such entries were picked first, then a sample of the others. Activity calls are given as the source filed them.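 The calls were made as follows, unless noted: active = viability at or under a set limit in both replicates, limit being median viability minus 3 SD (cut at about 48% in these data, passing the limit was not always enough); inconclusive = at or under the limit in just one replicate; inactive = at or above the limit in both replicates.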

Columns and labels:
[1] = HUVEC growth inhibition – cell-based, human, primary screen (AID 575;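 active = viability at or below 30% in both replicate assays; inconclusive = viability at or below 30% in just one of the two assays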;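 also: 100% = median of untreated cell wells with 0.1% DMSO on each plate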); details: HUVEC proliferation, CellTiter-Glo luminescence, 72 h; at 10 µM; stronger effect = lower value
How it was run: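 Timing: 72 h treatment at 37 °C; material: HUVEC primary cells; technique: CellTiter-Glo luminescence measuring cellular ATP; controls: vehicle and MePR control wells; measure: percent of median DMSO-control luminescence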

[2] = H69AR cell proliferation blockers – human, duplicate replicates, primary screen (AID 580); details: H69AR lung tumor cells viability, ATP luminescence, 72 h; at 10 µM; stronger effect = lower value;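 also: 100% = mean luminescence of untreated wells and 0% = no signal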
[3] = S. cerevisiae growth inhibition in permissive medium (OD615), pilot counter-assay for S. cerevisiae lifespan shortening project, permissive growth control (AID 705;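 active = growth inhibition above 25% in both replicates, a cutoff set 3 SD above the mean; inconclusive = above 25% in only one replicate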); details: OD615, 24 h, at 10 µM, stronger effect = higher value
How it was run: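 Timing: 24 h exposure, 30 °C / Material: Saccharomyces cerevisiae strain carrying genetically modified DeaD replicative-lifespan system / Signal: OD at 615 nm / Compound: 10 µM single dose, 0.25% DMSO / Medium: SC raffinose/galactose permissive medium / Evaluation: reduction in yeast growth (OD615)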

[4] = doxorubicin toxicity protection in MRP-1 cells – H69AR cells, CellTiter-Glo, duplicate, MRP-1 activator project, pilot screen (AID 807;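 active = viability increase at or above a cutoff of the median across tested compounds plus 3 SD, cut at about 8.5% in these data, passing the limit was not always enough; inconclusive = some gains above the cutoff, reason not given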;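 also: compound pretreatment 18-22 h then 72 h combined with doxorubicin; 0% = doxorubicin alone and 100% = vehicle without doxorubicin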); details: H69AR viability with doxorubicin, CellTiter-Glo luminescence; at 10 µM; stronger effect = higher value
[5] = RAM pathway blockade in budding yeast – dse1pr::URA3 reporter, 5-FOA selection, pilot screen (AID 869;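 active = inhibition over a set limit, the all-compound mean plus 3 SD, in both replicate runs; inconclusive = over that limit in just one replicate run; inactive = at or under that limit in both runs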;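 also: 0% = DMSO wells with no growth and 100% = 10 µM 1-NA-PP1 with full growth; RAM network block rescues cells from 5-FOA so hits raise OD615 growth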); details: S. cerevisiae dse1pr::URA3 5-FOA growth, OD615, 2 d; at 10 µM; stronger effect = higher value; strain carries analog-sensitive mutant Cbk1 kinase
[6] = viability of HCT116 without oncogenic beta-catenin – human colon tumor cells, pilot screen (AID 823;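 active = cell viability at or below a set limit in both duplicate runs, the limit being the all-compound median minus 4 SD, cut at about 23% in these data, passing the limit was not always enough; inconclusive = no clear call, values can overlap the other calls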;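 also: 0% = wells killed by 20 µM Hyamine and 100% = untreated DMSO cell wells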); details: HCT116 beta-catenin knockout viability, CellTiter-Glo, 60 h; at 10 µM; stronger effect = lower value
[7] = S. cerevisiae growth inhibition in restrictive medium, OD615, pilot screen, restrictive growth control, yeast lifespan reduction project (AID 706;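 active = growth inhibition above a set limit, 3 SD over mean compound inhibition, in both replicates, cut at about 43% in these data; inconclusive = above the limit in only one replicate; inactive = at or below the limit in both replicates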;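 also: modified DeaD lifespan yeast strain shifted to restrictive glucose medium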); details: OD615, 48 h, at 10 µM, stronger effect = higher value
How it was run: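 System: Engineered S. cerevisiae DeaD strain | Detection: OD615 | Buffer or medium: CSMM-D glucose medium | Doses: 10 µM compound, 0.25% DMSO | Timing: 4 h pre-growth plus 48 h compound exposure, 30 °C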

[8] = viability of PTEN-null HCT116 cells – cell-based, HCT116 clonal line, CellTiter-Glo, pilot screen (AID 824;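 active = viability at or below 27.92% in each of two runs, the all-compound median minus 4 SD; inconclusive = no clear call, values can overlap the other calls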;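 also: 0% = 20 µM Hyamine control and 100% = vehicle cell control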); details: HCT116 PTEN-deleted viability, 60 h, at 10 µM, stronger effect = lower value
[9] = MRP1 drug-resistance reversers in H69AR cells – cell-based, doxorubicin co-treatment, pilot screen (AID 601;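 active = viability loss from added drug above about 55%, and viability with drug at most 40%, in both replicates, limit read from the data, passing the limit was not always enough; inconclusive = both conditions met in only one replicate; inactive = neither replicate meets both conditions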); details: H69AR cells + 2 uM doxorubicin, CellTiter-Glo, 72 h; at 10 µM; stronger effect = higher value

COC(=O)c1ccccc1NC(=O)c1ccc(-c2ccccc2F)o1
viability [1]: inconclusive: 34.3%
viability [2]: inconclusive: 60.9%

COC(=O)CSC1=NS(=O)(=O)c2ccccc21
growth inhibition [3]: active: 94.3%

CCn1c2ccccc2c2cc(Nc3cc(C)nc4ncnn34)ccc21
growth inhibition [3]: inconclusive: 21.8%

Cc1ccccc1Cn1nc(C)c(NC(=O)c2noc3c2CCc2ccccc2-3)c1C
viability increase [4]: active: 10.6%

CCCN(CCC)C(=O)c1c(C)[nH]c(C(=O)OCC)c1C
inhibition [5]: inactive: 2.12%

COC(=O)c1[nH]c2c(c1C)C(=O)CC(c1cc(OC)ccc1OC)C2 (stereo unspecified)
inhibition [5]: inconclusive: 3.61%

CCOc1ccc(OCCCCN(C)C)cc1
viability [2]: inactive: 88.5%
viability [6]: inactive: 96.8%

Cc1cccc(C2CC(c3ccc(Cl)cc3)Nc3nc(N)nn32)c1 (stereo unspecified)
viability [2]: inactive: 96.6%
viability [6]: inactive: 82.1%

Cc1cc(C)c2c(=O)n(CC(=O)N3CCC(Cc4ccccc4)CC3)sc2n1
viability [2]: active: 3.96%
growth inhibition [7]: active: 89.2%
viability [6]: inconclusive: 31.6%

Cc1ccc(C)n1-c1ccc(-n2cnnn2)cc1
viability [2]: inconclusive: 52.4%
viability [6]: active: 9.95%
viability [8]: active: 10.3%

COc1ccc(C(=O)c2ccc(OC)c(N)c2)cc1N
viability [2]: active: 16.9%
viability [6]: active: 15.2%
viability [8]: active: 17%

O=c1[nH]c2ccc(Br)cc2c(-c2ccccc2)c1N1CCOCC1
viability [2]: inactive: 75.7%
differential viability (reversal) [9]: inconclusive: 58.7%

Oc1cccc(C=NCc2ccccc2)c1O
viability [2]: inconclusive: 51%
growth inhibition [7]: active: 97.5%

CCOC(=O)c1sc2nc(N3CCCC3)c3c(c2c1N)CC(C)(C)OC3
viability [2]: inconclusive: 53.1%

COc1ccc(C(NC(C)=O)c2ccc3cccnc3c2O)c(OC)c1 (stereo unspecified)
viability [2]: active: 23%

O=C1NC(=O)C(c2ccccc2)(c2ccccc2)N1
viability [2]: inactive: 98%
differential viability (reversal) [9]: inactive: 7.3%

CCOC(=O)c1[nH]c(C)c(C(=O)Nc2ccc(C)cc2C)c1C
viability [2]: active: 22.2%
viability [6]: inconclusive: 25.2%
viability [8]: inactive: 32.8%

CC(=O)NCC(=O)N(Cc1ccco1)C1(C(=O)NC2CCCCC2)CCCCC1
viability [2]: inactive: 90.9%
viability [6]: inconclusive: 89.6%

CSc1ccccc1NC(=O)C1CCCO1 (stereo unspecified)
viability [2]: inactive: 93.9%
viability [6]: inconclusive: 91.8%

COc1ccc(OCC(=O)N2CC3(C)CC2CC(C)(C)C3)cc1 (stereo unspecified)
viability [2]: inactive: 99.8%
viability [6]: inactive: 97.9%

O=C1NC2c3ccccc3C(=O)N2c2c1cnn2-c1ccccc1 (stereo unspecified)
viability [2]: inconclusive: 50.6%

CCOC(=O)c1cc2c(=O)n3ccccc3nc2n(CC(C)C)c1=NC(=O)c1ccco1
viability [2]: active: 7.19%
viability [6]: inconclusive: 38.4%

CSC1=N/C(=C\C=C\c2cccs2)C(=O)S1
viability [2]: inconclusive: 51.4%
growth inhibition [7]: inactive: 0.455%

Cc1noc(C)c1CSc1nnc2scc(-c3ccc(Cl)cc3)n12
viability [2]: inactive: 91.6%

OC1(c2cccc(C(F)(F)F)c2)CCN(c2ccc(-c3ccccc3)nn2)CC1
viability [2]: inconclusive: 59%
viability [6]: active: 10.7%

CCOC(=O)c1cc2c(=O)n3ccccc3nc2n(CCCOC)c1=NC(=O)C(C)(C)C
viability [2]: inactive: 83.7%
viability [6]: inconclusive: 94.7%

CCOCCCNC(=O)C(c1ccccc1)N(Cc1ccc2c(c1)OCO2)C(=O)CNC(C)=O (stereo unspecified)
viability [2]: inactive: 105%
viability increase [4]: inactive: -3.36%
viability [8]: inconclusive: 95%

Cc1ccc(C(C(=O)NC2CCCCC2)N2CCOCC2)cc1 (stereo unspecified)
viability [2]: inactive: 95.8%
viability [6]: inconclusive: 89.4%

Cc1nn(-c2ccccc2)c2c1C(O)n1c(nc3ccccc31)S2 (stereo unspecified)
viability [2]: active: 26.2%

CCOC(=O)c1c(C)[nH]c(C(=O)COC(=O)c2ccc(F)c(S(=O)(=O)N3CCOCC3)c2)c1C
viability [2]: inconclusive: 63.9%

COc1ccc(C(C)(C)C)cc1NC(=O)Nc1ccc2c(c1)OCO2
viability [2]: inconclusive: 45.3%
differential viability (reversal) [9]: inactive: -12%

COc1cc(-c2noc(-c3ccccc3C(=O)NCc3ccco3)n2)cc(OC)c1OC
viability [2]: inconclusive: 59%

O=C(Nc1nc(-c2ccncc2)cs1)C1COc2ccccc2O1 (stereo unspecified)
viability [2]: inconclusive: 64.8%
growth inhibition [3]: inconclusive: 14.3%

CCC(C)(NC(=O)CNC(C)=O)C(=O)NC1CCCCC1 (stereo unspecified)
viability [2]: inactive: 94%
viability [6]: inconclusive: 101%

COc1ccc(C2C(C(=O)N3CCCC3)c3cc(OC)c(OC)cc3C(=O)N2C)cc1 (stereo unspecified)
viability [2]: inactive: 102%
growth inhibition [7]: inactive: -0.445%
viability [6]: inconclusive: 92.1%

FC(F)(F)c1cc(-c2ccco2)nc(NCc2ccco2)n1
viability [2]: inactive: 62.2%
viability [6]: inconclusive: 55.6%

N#Cc1c(N2CCCC2)nc(N)c2c(N)nc(N3CCCC3)cc12
viability [2]: inconclusive: 46.3%

Cc1cccc(Cc2c(C)nc3nc(SCC(=O)NCc4ccco4)nn3c2C)c1
viability [2]: active: 49.6%
viability [6]: inconclusive: 74.3%
viability [8]: inactive: 81.9%

Cn1c(SCC(=O)c2cc3ccccc3o2)nnc1-c1ccccc1
viability [2]: inactive: 84.3%
growth inhibition [7]: inconclusive: 41.8%

Cc1ccc(Cn2nnc3c(=O)[nH]c(C4CCN(S(=O)(=O)c5ccc(F)cc5)CC4)nc32)cc1
viability [2]: inactive: 86.2%
differential viability (reversal) [9]: inconclusive: 55.1%

Cc1ccc(C2C3CN(C(C)C)CC=C3C(C#N)=C(N)C2(C#N)C#N)cc1 (stereo unspecified)
viability [2]: inconclusive: 62%
differential viability (reversal) [9]: inconclusive: 47.8%

Cn1c(C(=O)Nc2ccc3c(c2)OCO3)cc2c(=O)n(C)c3ccccc3c21
viability [2]: active: 34.2%

O=C(c1ccc(NS(=O)(=O)c2cccs2)cc1)N1CCCCC1
viability [2]: inactive: 89.9%
viability [6]: inactive: 93.8%

CCOC(=O)C1CCCN(c2c(Nc3ccc(C)c(C)c3)c(=O)c2=O)C1 (stereo unspecified)
viability [2]: inactive: 87.6%
differential viability (reversal) [9]: inconclusive: 52.5%

COCc1nnc(NC(=O)c2ccc(S(=O)(=O)N(C)c3ccccc3)cc2)o1
viability [2]: active: 43.7%
viability [6]: inactive: 29.7%
viability [8]: inconclusive: 25.8%

CCOC(=O)c1[nH]c(C)c(C(=O)Nc2cc(OC)ccc2OC)c1C
viability [2]: active: 25.5%

COCCOC(=O)c1[nH]c2c(c1C)C(=O)CC(c1ccco1)C2 (stereo unspecified)
viability [6]: active: 18.9%

COc1ccc(C(=O)Oc2c(CN3CCOCC3)cc(Cl)c3cccnc23)cc1OC
viability [6]: active: 9.93%

CC(=O)OCCNc1cc(N2CCN(C)CC2)c2noc3c2c1C(=O)c1ccccc1-3
inhibition [5]: active: 8.66%

CC(=O)C1=C(C)Nc2cc(C(F)(F)F)ccc2S1
growth inhibition [3]: inconclusive: 27.1%

COc1ccc(Oc2ccc(S(=O)(=O)N3CCCCC3)cc2S(=O)(=O)N2CCCCC2)cc1
growth inhibition [3]: inactive: -4.96%
viability [6]: inconclusive: 87.2%

CCOC(=O)N1CCN(C(=O)Cn2c(=O)sc3ccccc32)CC1
growth inhibition [3]: inactive: -1.79%

CCOC(=O)c1c(N)sc2c(OC)c(Br)ccc12
growth inhibition [7]: inconclusive: 34%

Cn1c(=O)c2c(nc(SCCCC#N)n2Cc2c(F)cccc2Cl)n(C)c1=O
differential viability (reversal) [9]: active: 61.3%
viability [6]: inactive: 89.2%

COc1ccc(C)cc1-n1c(N)c(C#N)c(C#N)c1-c1ccc(OC)c(OC)c1OC
differential viability (reversal) [9]: inconclusive: 56.1%

Cn1c(Cn2c(=O)sc3ccccc32)nnc1SCC(=O)Nc1ccccc1
growth inhibition [3]: inactive: -7.53%
viability [6]: inactive: 99.5%
inhibition [5]: inconclusive: 5.05%

COc1ccc(-c2n[nH]c(C(F)(F)F)c2-c2cc3ccccc3o2)c(O)c1
growth inhibition [3]: inconclusive: 19.4%
growth inhibition [7]: inconclusive: 14.7%

CCN1CCN(c2ncnc3c2cnn3-c2ccc(C)cc2C)CC1
differential viability (reversal) [9]: inconclusive: 54.6%

O=C(O)c1cc2c(s1)-c1ccccc1OC2
growth inhibition [7]: inconclusive: 47.1%

Cc1ccccc1NC(=O)N1C2CCCC1CC(NC(=O)C1CC1)C2 (stereo unspecified)
differential viability (reversal) [9]: inactive: 10.3%

O=C(c1cc(-c2ccccc2O)on1)N1CCc2ccccc2C1
growth inhibition [3]: inconclusive: 42.1%
growth inhibition [7]: inconclusive: 53.6%

O=C(COc1ccccc1)N1CCN(c2ncnc3c2cnn3-c2ccccc2)CC1
differential viability (reversal) [9]: inconclusive: 41.3%

c1cn2cc(-c3ccc4c(c3)OCO4)nc2s1
growth inhibition [3]: inconclusive: 21.5%
growth inhibition [7]: inconclusive: 46.7%

Cc1ccc(C)c(N2CCN(C(=O)c3cc4ccccn4n3)CC2)c1
differential viability (reversal) [9]: inconclusive: 34.9%
viability [8]: inactive: 92.5%

O=C(CSc1nnc(COc2ccc(Cl)cc2)o1)N1CCN(c2ccccc2)CC1
differential viability (reversal) [9]: inactive: -2.18%

O=C1C2C3C=CC(CO)(O3)C2C(=O)N1c1ccccc1-c1ccccc1 (stereo unspecified)
growth inhibition [3]: active: 97.3%

COc1ccc(NC(=O)CC2Sc3ncnn3C2=O)cc1 (stereo unspecified)
growth inhibition [3]: inconclusive: 18.1%

c1ccc(Cc2nnc3sc(-c4ccco4)nn23)cc1
growth inhibition [3]: inconclusive: 9.12%
viability [6]: inactive: 108%

COc1ccc2cc(C(=O)Nc3c(C)n(C)n(-c4ccccc4)c3=O)sc(=O)c2c1OC
growth inhibition [3]: inconclusive: 51.1%
growth inhibition [7]: inconclusive: 54.6%

Cc1ccc(-n2ncc3c(N4CCN(c5ccccc5)CC4)ncnc32)c(C)c1
differential viability (reversal) [9]: inconclusive: 54.9%

CCOc1cc(C2CC(=O)N3CN(C4CCCCC4)CSC3=C2C#N)ccc1O (stereo unspecified)
growth inhibition [3]: active: 41.6%
growth inhibition [7]: active: 76%

COc1ccc(CC(=O)OCn2nnc3ccccc3c2=O)cc1
differential viability (reversal) [9]: inactive: -3.25%

O=C1CCCC2=C1C(c1cccs1)n1nc(SCc3ccccc3F)nc1N2 (stereo unspecified)
differential viability (reversal) [9]: active: 66.1%
viability [6]: inconclusive: 75.5%

Cc1nc2ccccc2c2nc3ccccc3n12
growth inhibition [3]: inconclusive: 22.7%
viability [6]: inconclusive: 75.8%

CN1CCc2c(sc3c2c(=O)n(-c2ccccc2)c2nnc(SCc4ccc(F)cc4)n32)C1
differential viability (reversal) [9]: inconclusive: 67.6%

O=C(CSCc1ccco1)Nc1cc(C(F)(F)F)ccc1N1CCOCC1
growth inhibition [3]: inconclusive: 15.8%
growth inhibition [7]: inconclusive: 49.2%

O=C1C(=C2CCCCC2)SC(=S)N1Cc1ccco1
growth inhibition [3]: inconclusive: 26.9%
growth inhibition [7]: inconclusive: 53.9%
